PubChem BioAssay AID1508623 (National Center for Advancing Translational Sciences (NCATS), 2021)
Among all 48,000 compounds or so, about 450 (0.94%) were called active. About 19% were inconclusive and are not listed. The call rests on the fitted dose curve; in most records, active means well fitted inhibition curve with a large enough effect; inconclusive means small, poorly fitted or top-dose-only effect; inactive means no such curve, though single readings can be large or run the other way. The list shows a part of the results.

Assay: Primary qHTS for Identification of Small Molecule Inhibitors of Huntingtin Promoter Activity; further: nearly all actives have a fitted effect of over 50% in size
Conditions: HEK293 HTT promoter firefly luciferase reporter (activity 0% = vehicle and -100% = no light), 24 h; series mostly up to 57.5 µM; activity change, negative = inhibition: at the top concentration
Summary of the method: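 HEK293 cells carrying firefly luciferase reporters were seeded at 2,500 per well in Opti-MEM and cultured for 24 h. They were then treated with compounds at up to 57.5 uM final for 24 h at 37 degrees C before Dual-Glo luminescence readout.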

Activity change, negative = inhibition, inactive:
O=C(O)c1ccccc1C(=O)Nc1ccc(S(=O)(=O)Nc2nccs2)cc1 -3.39%, Cc1ccccc1NC(=O)Cn1c(=O)n(CCCCCC(=O)NCc2ccc3c(c2)OCO3)c(=O)c2sccc21 -19.8%, Cc1c(Cl)cccc1NC(=O)CSc1nc(=O)n(CCN2CCOCC2)c2c1CCC2 -22.7%, CCOc1ccc(NC(=O)c2sc3nc(-c4ccc(OC)cc4)cn3c2C)cc1 -10.4%, COc1ccc(-n2ccn(CC(=O)Nc3ccccc3C(F)(F)F)c(=O)c2=O)cc1OC -1.13%, COc1ccc(-c2nsc(NC(=O)c3ccccc3Br)n2)cc1 32%, COc1cc(NC(=O)C2CCCN(S(=O)(=O)c3cn(C)cn3)C2)cc(OC)c1 (stereo not given) -13.7%, CCOC(=O)c1cc2c(=O)n3ccccc3nc2n(CC(C)C)c1=NC(=O)C(C)Oc1ccccc1 (stereo not given) 1.76%, CCOc1ccc(NC(=O)CCS(=O)(=O)c2cc3c4c(c2)CCN4C(=O)CC3)cc1 -12.8%, CC(=O)OC(C)OC(=O)C(C)c1ccc(-c2ccccc2)c(F)c1 (stereo not given) 5.35%, O=C(NC1CC(=O)N(c2ccc(Cl)cc2)C1)C(=O)c1c[nH]c2ccccc12 (stereo not given) -0.147%, Cc1ccc(NC(=O)CCS(=O)(=O)c2ccc3c(c2)oc(=O)n3C)c(Br)c1 -16.9%, Cc1ccc2nc(COc3cccc(NC(=O)COc4ccc(F)cc4)c3)cc(=O)n2c1 33.2%, Cc1c(Cl)cccc1Nc1nn2c(=O)c3ccc(C(=O)N(C)Cc4ccccc4)cc3nc2s1 -30.4%, COc1ccc(NC(=O)c2cc3c(C)nn(-c4ccccc4)c3s2)c(OC)c1 -9.74%, Cc1cc(C)cc(-n2c(SCC(=O)NC3CCCCC3)nc3c([nH]c4ccccc43)c2=O)c1 -8.58%, CCOc1cc(S(=O)(=O)NCCc2c(C)[nH]c3ccc(C)cc23)ccc1Br -23.9%, COc1ccc(N2CCN(C(=O)CSCc3ccc(C)cc3)CC2)cc1 -12.5%, O=c1[nH]c(SCc2c(F)cccc2Cl)nc2c1CCCC2 -16.6%, COCCNC(=O)c1[nH]c2cc(C)ccc2c1Sc1ccc(Cl)cc1 19%, O=C(Nc1cccc(-c2nc3ccccc3o2)c1)c1cccc2c(Cl)cccc12 -15.9%, CC(C)OC(=O)OCOP(=O)(CO[C@H](C)Cn1cnc2c(N)ncnc21)OCOC(=O)OC(C)C, O=C(COc1ccccc1)OCc1cc(=O)n2nc(-c3cccs3)sc2n1 -17.3%, Cc1c(Cl)cccc1NC(=O)c1cc2nc(-c3ccc4c(c3)OCO4)cc(C(F)(F)F)n2n1 4.76%, CCc1nn(CC(=O)NC(C)CC)c(=O)c2cc3occc3n12 (stereo not given) -17.6%, COc1ccc(CNC(=O)c2cnc3ccc(C)cn3c2=O)cc1 -16%, CC(C)(C)OC(=O)N1CCC(c2c(C(=O)Nc3ccc4c(c3)OCO4)cnn2-c2ccccc2)CC1 -5.47%, O=C(NCc1ccc2c(c1)CCN2C(=O)c1ccncc1)c1ccccc1F -25%, COC(=O)c1ccccc1NC(=O)CCS(=O)(=O)c1nc(-c2ccc3c(c2)OCO3)cc(C(F)(F)F)n1 6.08%, COc1ccccc1CNc1ncnc2c1nnn2C -13.5%, CCOCCCn1c(=N)c(S(=O)(=O)c2ccc(Cl)cc2)cc2c(=O)n3cccc(C)c3nc21 8.29%, COC(=O)c1c(-c2cccs2)csc1NC(=O)c1ccc(C(C)C)cc1 -0.494%, COc1ccccc1NC(=O)C(=O)NCC(c1cccnc1)N1CCc2ccccc2C1 (stereo not given) -6.34%, COc1ccc(-n2nc(C(=O)Nc3cc(C)ccn3)c3c4ccccc4n(C)c3c2=O)cc1Cl 20.2%, CC(=O)Nc1nonc1-c1nnc(SCc2ccccc2)n1C -12.8%, CCc1ccc(NC(=O)Cn2c(=O)c3cc(Cl)ccc3n3nncc23)cc1 4.44%, CCOc1ccc(-c2cc(C(=O)NCCc3ccc(OC)c(OC)c3)[nH]n2)cc1 -8.58%, CN1CC(=O)N(CC(=O)Nc2ccc(OC(F)(F)F)cc2)c2ccccc2C1=O -1.05%, O=c1c2oc3ccccc3c2n(Cc2cccc(F)c2)c(=O)n1Cc1ccc2c(c1)OCO2 -12.3%, COC(=O)c1cccc(CN2C(=O)SC(Nc3ccc(C)cc3)C2=O)c1 (stereo not given) -10.8%, C=Cc1ccc(Cn2c(SCC(=O)N3CCN(c4ccc(F)cc4)CC3)nc3ccccc32)cc1 -23.3%, Cc1cccc(NC(=O)/C(C#N)=C/c2ccc(C)o2)c1 17.6%, CCOC(=O)c1ccc(NC(=O)CCc2nc3cccnc3n2Cc2cccs2)cc1 -16%, C[C@@]12CCC[C@H]1[C@@H]1CC[C@H]3C[C@@H](O)CC[C@]3(C)[C@H]1CC2 7.91%, Cc1ccc(S(=O)(=O)c2cn(CC(=O)Nc3ccc(Cl)cc3)c3ccc(F)cc3c2=O)cc1C -13.7%, COc1cc(C2CC(=O)Nc3c2c(=O)n(C)c2ncnn32)cc(OC)c1OC (stereo not given) -1.74%, CCOC(=O)c1c(NC(=O)c2cc(CC)on2)sc(C(C)=O)c1C -1.62%, CC(=O)c1ccc(N2CCN(c3ccc4cc(S(=O)(=O)N5CCC(C)CC5)ccc4n3)CC2)cc1 -19.2%, CSc1ccc(CCNC(=O)c2c(C)oc3ncn(C)c(=O)c23)cc1 3.36%, COc1ccc(CCN2CCC(CNC(=O)c3cnn(-c4cccc(Cl)c4)c3C3CCN(C(=O)OC(C)(C)C)CC3)CC2)cc1 -16.5%, Cc1cccc(Cn2c(Cc3ccccc3)nc3ccccc32)c1 -20.2%, O=C(CN1c2ccccc2S(=O)(=O)c2ccccc21)Nc1cccc(C(F)(F)F)c1 -20.2%, CCOC(=O)c1c(S(=O)(=O)NCC(=O)N(C)Cc2ccccc2)c(C)n(C)c1C -5.18%, COc1ccccc1N1CCN(c2ncnc3c2c(-c2ccccc2)cn3-c2cccc(C)c2)CC1 -21.2%, CC1CCN(S(=O)(=O)c2csc(C(N)=O)c2)CC1 -11.1%, CCCOc1ccc(C2c3c(oc4ccc(F)cc4c3=O)C(=O)N2CCc2ccc(OC)cc2)cc1 (stereo not given) -1.94%, Cc1ccc(CSc2nc3cccnc3n2Cc2ccc(C(=O)NC3CCCCC3)cc2)cc1 -4.11%, O=C(CSc1oc(-c2ccc(F)cc2)nc1S(=O)(=O)c1ccc(Br)cc1)NC1CCCCC1 -13.2%, CC(=O)Nc1nonc1-c1nnc(SCC(=O)Nc2ccc(C)c(Cl)c2)n1C -17.7%, CCOc1ccc2c(c1)c(=O)c(S(=O)(=O)c1ccc(C)cc1)cn2Cc1ccccc1Cl -22.6%
